Measurements reported in article PMC4336329 (PLoS ONE, 2015).
The whole screen tested about 310,000 compounds, of which about 14,000 (4.5%) showed an effect of 50% or more. The effect is printed as a negative number. The list shows a part of the results.

The molecules below were run against human ether-à-go-go-related gene (hERG) potassium channel (human, UniProt Q12809) (assay: primary screen, population patch clamp on CHO cells stably expressing hERG).
Method: Briefly, Chinese hamster ovary (CHO) cells stably expressing the hERG channel were dislodged from tissue culture flasks and dispensed into PPC plates. […] During the recording, background leak currents were estimated by a 100 ms step to -80 mV from an initial holding potential of -70 mV and subtracted from the subsequent current measurement. The campaign was conducted in two phases using slight differences in recording protocol. In the first phase, the initial voltage pulse used a 100 ms step to -30 mV from a holding potential of -70 mV, a 2 s conditioning step to +25 mV, and a 2 s test step to -30 mV. During the second phase of the screen, the potential during the conditioning step was raised to +45 mV. In both phases of the campaign, a secondary voltage pulse was applied using the same parameters as the second phase initial pulse. The initial and secondary pulses were applied in the absence of compound, and upon application of 1 μM and 10 μM test concentrations. […]
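Also: peak tail current of the secondary pulse compared with the same well before compound.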

Sequence of human ether-à-go-go-related gene (hERG) potassium channel (Q12809 whole entry, looked up): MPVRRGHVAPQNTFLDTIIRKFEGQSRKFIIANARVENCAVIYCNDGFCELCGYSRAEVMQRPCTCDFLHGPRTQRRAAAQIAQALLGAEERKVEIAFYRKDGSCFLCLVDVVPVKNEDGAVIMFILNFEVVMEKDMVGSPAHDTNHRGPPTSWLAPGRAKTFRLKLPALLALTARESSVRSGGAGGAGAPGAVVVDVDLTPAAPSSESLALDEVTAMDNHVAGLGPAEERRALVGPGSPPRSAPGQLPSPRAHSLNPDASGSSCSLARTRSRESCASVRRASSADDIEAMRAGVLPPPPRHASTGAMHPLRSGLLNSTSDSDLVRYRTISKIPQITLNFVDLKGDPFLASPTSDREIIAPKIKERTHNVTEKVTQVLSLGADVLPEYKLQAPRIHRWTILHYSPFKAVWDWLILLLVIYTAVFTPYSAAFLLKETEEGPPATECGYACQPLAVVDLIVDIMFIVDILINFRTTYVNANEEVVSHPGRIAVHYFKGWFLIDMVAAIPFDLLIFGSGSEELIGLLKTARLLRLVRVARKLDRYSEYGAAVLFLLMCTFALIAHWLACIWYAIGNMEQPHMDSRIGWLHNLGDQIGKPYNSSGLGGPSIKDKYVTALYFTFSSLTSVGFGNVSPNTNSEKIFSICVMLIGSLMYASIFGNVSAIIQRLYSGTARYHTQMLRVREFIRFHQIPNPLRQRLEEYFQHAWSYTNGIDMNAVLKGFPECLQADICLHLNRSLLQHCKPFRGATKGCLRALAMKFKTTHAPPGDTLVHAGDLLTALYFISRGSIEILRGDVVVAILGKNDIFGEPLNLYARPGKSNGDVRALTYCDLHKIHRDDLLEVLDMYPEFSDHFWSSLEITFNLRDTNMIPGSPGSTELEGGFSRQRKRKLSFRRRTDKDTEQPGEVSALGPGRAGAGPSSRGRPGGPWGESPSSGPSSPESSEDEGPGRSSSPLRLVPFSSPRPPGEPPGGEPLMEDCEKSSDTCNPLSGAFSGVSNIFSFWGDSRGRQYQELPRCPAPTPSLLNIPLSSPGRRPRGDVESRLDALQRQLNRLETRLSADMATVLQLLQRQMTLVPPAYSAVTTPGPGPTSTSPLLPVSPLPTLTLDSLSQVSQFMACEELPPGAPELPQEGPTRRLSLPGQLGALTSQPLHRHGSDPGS

Compound | hERG current change (%, negative = inhibition) at 10uM
CC(C)c1ccc(/C=C2\SC(=O)N(CC(=O)NCCCn3ccnc3)C2=O)cc1 | -76.9%
Cc1nn(-c2ccccc2)c(OC(=O)c2cccs2)c1S(=O)(=O)c1ccccc1 | -2.4%
COc1ccc2c(c1)C1(Nc3ccccc3-c3nc4ccccc4n31)C(=O)N2C (stereo not drawn) | 18.9%
Cc1ccc(Cn2cc(SCC(N)=O)c3ccccc32)cc1 | 2.93%
Cc1noc(NS(=O)(=O)c2ccc(NC(=O)C(Cl)(Cl)Cl)cc2)c1C | 14%
C=CCN=C1S/C(=C\c2ccc(Cl)cc2)C(=O)N1CC=C | -1.83%
S=C(Nc1ccc(Br)cc1)N1CCN(c2ccccn2)CC1 | 16%
COc1ccccc1CNC(=O)C1CCN(S(=O)(=O)N2CCCCC2)CC1 | -10.1%
COc1cc(/C=C2/SC(=S)NC2=O)ccc1OS(=O)(=O)c1ccc(C)cc1 | 39.8%
Cn1c(=O)[nH]c(=O)c2c1nc(N1CCN(Cc3ccccc3)CC1)n2CCCc1ccccc1 | -31.9%
CCCCN1C2CCCC1CC(NC(=O)c1ccc(OC)c(OC)c1)C2 (stereo not drawn) | -47.6%
O=C(O)CC/C(=N/NC(=O)c1cn(-c2ccccc2)nc1-c1ccccc1)C(=O)O | 16.5%
Cc1ccc(C2=NN(C(=O)C3CCCO3)C(c3ccco3)C2)cc1 (stereo not drawn) | -5.22%
COc1ccc(Cl)cc1NC(=O)N1CCN(CCc2ccccc2)CC1 | -10.5%
COc1cccc2cc(C(=O)CS(=O)(=O)c3ccc(C)cc3)c(=O)oc12 | -19.4%
CC(=O)Nc1ccc(Nc2nc(-c3c(C)nc4ccccn34)cs2)cc1 | 18.4%
CCCNC(=O)Cn1cnc2sc(C(=O)Nc3cc(OC)c(OC)c(OC)c3)c(C)c2c1=O | 1.34%
Cc1cccc2nc(CSc3nc4[nH]ncc4c(=O)n3-c3cccc(Cl)c3)cc(=O)n12 | -23.3%
CN(C)c1ccc(/C=N/O)cc1 | 19.2%
Nc1nnc(-c2ccccc2F)s1 | 12.4%
CCN(CC)CCN1C(=O)Cn2c(C)c(C)c3cccc1c32.Cl | -52.4%
COC(=O)c1ccc(NC(=S)NN2CCCCC2c2cccnc2)cc1 (stereo not drawn) | -3.42%
CCOc1ccc(S(=O)(=O)Nc2cc(F)ccc2F)c2cccnc12 | 2.18%
Cc1ccc(CCNC(=O)C2CCCN(C(=O)N(C)C)C2)cc1 (stereo not drawn) | 8.01%
